No constants are given. Whether binding was seen depends on the method and setting. For part of these data: In cells and extracts the contact can be indirect. Some entries that bind do so weakly or less than the wild type. Sequences can lack the tags named with a protein.
T1: Mec3 (two-hybrid fusion) (S. cerevisiae) (UniProt Q02574)
T1 sequence: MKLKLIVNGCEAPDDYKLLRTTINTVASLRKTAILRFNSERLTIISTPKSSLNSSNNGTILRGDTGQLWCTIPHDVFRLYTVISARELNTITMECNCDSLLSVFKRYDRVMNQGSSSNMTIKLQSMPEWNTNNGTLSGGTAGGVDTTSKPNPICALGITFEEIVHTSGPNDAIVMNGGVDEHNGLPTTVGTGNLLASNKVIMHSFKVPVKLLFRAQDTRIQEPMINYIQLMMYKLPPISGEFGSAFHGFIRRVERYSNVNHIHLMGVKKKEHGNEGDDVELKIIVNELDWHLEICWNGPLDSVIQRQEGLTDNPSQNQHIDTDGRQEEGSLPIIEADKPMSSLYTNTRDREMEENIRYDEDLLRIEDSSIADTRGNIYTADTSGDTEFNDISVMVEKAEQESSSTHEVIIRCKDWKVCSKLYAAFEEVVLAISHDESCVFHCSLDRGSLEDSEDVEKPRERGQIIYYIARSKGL

Sequences of proteins named here, by UniProt entry; tags and fusion partners are left off.
UniProt P38859: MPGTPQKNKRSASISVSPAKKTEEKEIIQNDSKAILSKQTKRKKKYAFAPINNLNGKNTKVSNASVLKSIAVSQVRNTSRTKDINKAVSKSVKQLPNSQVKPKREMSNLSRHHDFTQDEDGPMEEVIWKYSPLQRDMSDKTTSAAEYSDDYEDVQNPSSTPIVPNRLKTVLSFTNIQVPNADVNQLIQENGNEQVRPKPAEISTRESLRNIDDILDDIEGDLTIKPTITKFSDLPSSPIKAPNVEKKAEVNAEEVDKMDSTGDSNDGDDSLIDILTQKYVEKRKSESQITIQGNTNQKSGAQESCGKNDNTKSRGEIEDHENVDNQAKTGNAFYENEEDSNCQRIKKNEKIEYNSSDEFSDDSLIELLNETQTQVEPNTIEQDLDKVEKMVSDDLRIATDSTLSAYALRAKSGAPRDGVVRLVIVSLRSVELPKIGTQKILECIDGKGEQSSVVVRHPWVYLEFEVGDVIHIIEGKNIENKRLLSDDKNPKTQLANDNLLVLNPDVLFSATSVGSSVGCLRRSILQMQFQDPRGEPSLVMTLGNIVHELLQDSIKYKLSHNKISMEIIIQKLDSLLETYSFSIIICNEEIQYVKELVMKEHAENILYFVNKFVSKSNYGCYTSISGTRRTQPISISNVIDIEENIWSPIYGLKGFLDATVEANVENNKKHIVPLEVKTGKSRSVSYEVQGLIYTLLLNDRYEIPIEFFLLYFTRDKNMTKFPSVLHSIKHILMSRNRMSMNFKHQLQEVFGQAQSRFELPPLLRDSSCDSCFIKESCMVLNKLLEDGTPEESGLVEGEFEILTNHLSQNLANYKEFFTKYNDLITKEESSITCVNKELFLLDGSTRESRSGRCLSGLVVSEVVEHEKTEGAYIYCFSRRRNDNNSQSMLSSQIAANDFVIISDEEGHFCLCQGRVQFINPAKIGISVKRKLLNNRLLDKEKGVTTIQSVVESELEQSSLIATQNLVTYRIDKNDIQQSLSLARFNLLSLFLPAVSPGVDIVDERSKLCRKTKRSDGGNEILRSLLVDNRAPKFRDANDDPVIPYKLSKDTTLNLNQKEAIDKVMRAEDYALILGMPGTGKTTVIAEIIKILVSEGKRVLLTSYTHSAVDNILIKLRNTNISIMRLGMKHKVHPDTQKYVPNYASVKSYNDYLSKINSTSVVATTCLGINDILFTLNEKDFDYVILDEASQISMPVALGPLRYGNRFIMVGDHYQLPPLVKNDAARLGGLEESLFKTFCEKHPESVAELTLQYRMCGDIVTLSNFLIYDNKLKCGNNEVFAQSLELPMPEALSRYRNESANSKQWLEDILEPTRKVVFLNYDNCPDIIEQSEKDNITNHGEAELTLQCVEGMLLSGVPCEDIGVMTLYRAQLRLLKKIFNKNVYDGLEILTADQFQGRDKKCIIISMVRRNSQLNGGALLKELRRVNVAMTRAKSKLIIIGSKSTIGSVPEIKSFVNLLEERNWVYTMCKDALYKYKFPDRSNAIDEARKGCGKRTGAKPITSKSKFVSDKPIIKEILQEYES

T2: Rad17 (two-hybrid fusion) (S. cerevisiae) (UniProt P48581)
T2 sequence: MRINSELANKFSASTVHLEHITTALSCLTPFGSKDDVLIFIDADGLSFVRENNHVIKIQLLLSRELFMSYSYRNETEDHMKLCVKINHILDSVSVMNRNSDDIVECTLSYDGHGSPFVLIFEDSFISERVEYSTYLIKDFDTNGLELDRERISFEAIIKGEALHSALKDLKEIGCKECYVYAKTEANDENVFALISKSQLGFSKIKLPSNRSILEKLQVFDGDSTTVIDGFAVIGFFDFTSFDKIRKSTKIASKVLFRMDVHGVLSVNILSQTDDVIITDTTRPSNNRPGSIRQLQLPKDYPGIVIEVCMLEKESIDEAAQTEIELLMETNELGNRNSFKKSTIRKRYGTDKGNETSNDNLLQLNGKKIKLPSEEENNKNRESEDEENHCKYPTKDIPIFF

T3: Ddc1-Myc (S. cerevisiae) (UniProt Q08949)
T3 sequence: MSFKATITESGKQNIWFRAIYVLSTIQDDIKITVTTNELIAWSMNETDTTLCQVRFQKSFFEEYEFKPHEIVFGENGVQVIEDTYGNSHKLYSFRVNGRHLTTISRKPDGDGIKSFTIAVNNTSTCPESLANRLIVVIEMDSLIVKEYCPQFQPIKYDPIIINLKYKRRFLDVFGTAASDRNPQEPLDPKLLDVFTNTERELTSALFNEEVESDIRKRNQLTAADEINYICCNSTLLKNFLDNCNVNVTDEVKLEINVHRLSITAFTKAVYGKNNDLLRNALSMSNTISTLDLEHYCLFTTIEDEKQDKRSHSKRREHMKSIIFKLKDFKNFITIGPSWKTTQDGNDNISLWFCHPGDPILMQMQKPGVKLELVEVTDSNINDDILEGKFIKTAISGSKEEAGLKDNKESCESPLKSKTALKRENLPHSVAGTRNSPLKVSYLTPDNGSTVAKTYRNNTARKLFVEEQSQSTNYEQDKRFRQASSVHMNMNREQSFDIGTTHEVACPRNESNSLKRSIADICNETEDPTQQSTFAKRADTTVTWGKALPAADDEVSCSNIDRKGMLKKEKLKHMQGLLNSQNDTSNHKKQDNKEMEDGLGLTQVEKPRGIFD


What was measured:
[1] = target: T1, Mec3 (two-hybrid fusion) (S. cerevisiae); assay: two-hybrid; Gal4 DB bait (pMB27) and Gal4 AD prey (pMB29) in diploid cdc13-1 reporter strains; growth on SC-His-Leu-Trp and SC-Ade-Leu-Trp, spotted at 23-29°C (23°C and 27°C shown); interactions of Ddc1 seem less strong at 27°C than at 23°C
[2] = target: T2, Rad17 (two-hybrid fusion) (S. cerevisiae); assay: as above
[3] = target: T3, Ddc1-Myc (S. cerevisiae); assay: co-IP; yeast cell lysates in IP buffer (pH 7.5, 20 mM HEPES, 140 mM NaCl, 1 mM EDTA, 1% Triton X 100, 0.1% sodium deoxycholate); anti-HA or anti-Myc antibody, protein G Dynabeads, 4°C overnight; four washes; western blot with anti-HA or anti-Myc

| Molecule | binding [1] | binding [2] | binding [3] |
| --- | --- | --- | --- |
| Dna2 (two-hybrid fusion) (from UniProt P38859 1-1522) | no binding | no binding | – |
| Dna2-HA (from UniProt P38859 1-1522) | – | – | no binding |
| Mec3 (two-hybrid fusion) (protein, UniProt Q02574 1-474) MKLKLIVNGCEAPDDYKLLRTTINTVASLRKTAILRFNSERLTIISTPKSSLNSSNNGTILRGDTGQLWCTIPHDVFRLYTVISARELNTITMECNCDSLLSVFKRYDRVMNQGSSSNMTIKLQSMPEWNTNNGTLSGGTAGGVDTTSKPNPICALGITFEEIVHTSGPNDAIVMNGGVDEHNGLPTTVGTGNLLASNKVIMHSFKVPVKLLFRAQDTRIQEPMINYIQLMMYKLPPISGEFGSAFHGFIRRVERYSNVNHIHLMGVKKKEHGNEGDDVELKIIVNELDWHLEICWNGPLDSVIQRQEGLTDNPSQNQHIDTDGRQEEGSLPIIEADKPMSSLYTNTRDREMEENIRYDEDLLRIEDSSIADTRGNIYTADTSGDTEFNDISVMVEKAEQESSSTHEVIIRCKDWKVCSKLYAAFEEVVLAISHDESCVFHCSLDRGSLEDSEDVEKPRERGQIIYYIARSKGL | – | binds | – |
| Exo1-HA (protein, UniProt P39875 1-702) MGIQGLLPQLKPIQNPVSLRRYEGEVLAIDGYAWLHRAACSCAYELAMGKPTDKYLQFFIKRFSLLKTFKVEPYLVFDGDAIPVKKSTESKRRDKRKENKAIAERLWACGEKKNAMDYFQKCVDITPEMAKCIICYCKLNGIRYIVAPFEADSQMVYLEQKNIVQGIISEDSDLLVFGCRRLITKLNDYGECLEICRDNFIKLPKKFPLGSLTNEEIITMVCLSGCDYTNGIPKVGLITAMKLVRRFNTIERIILSIQREGKLMIPDTYINEYEAAVLAFQFQRVFCPIRKKIVSLNEIPLYLKDTESKRKRLYACIGFVIHRETQKKQIVHFDDDIDHHLHLKIAQGDLNPYDFHQPLANREHKLQLASKSNIEFGKTNTTNSEAKVKPIESFFQKMTKLDHNPKVANNIHSLRQAEDKLTMAIKRRKLSNANVVQETLKDTRSKFFNKPSMTVVENFKEKGDSIQDFKEDTNSQSLEEPVSESQLSTQIPSSFITTNLEDDDNLSEEVSEVVSDIEEDRKNSEGKTIGNEIYNTDDDGDGDTSEDYSETAESRVPTSSTTSFPGSSQRSISGCTKVLQKFRYSSSFSGVNANRQPLFPRHVNQKSRGMVYVNQNRDDDCDDNDGKNQITQRPSLRKSLIGARSQRIVIDMKSVDERKSFNSSPILHEESKKRDIETTKSSQARPAVRSISLLSQFVYKGK | – | – | no binding |

Further lines, results first:

| binding [1] | binding [2] | binding [3] | Molecule |
| --- | --- | --- | --- |
| – | – | binds | Mec3-HA (protein, UniProt Q02574 1-474) MKLKLIVNGCEAPDDYKLLRTTINTVASLRKTAILRFNSERLTIISTPKSSLNSSNNGTILRGDTGQLWCTIPHDVFRLYTVISARELNTITMECNCDSLLSVFKRYDRVMNQGSSSNMTIKLQSMPEWNTNNGTLSGGTAGGVDTTSKPNPICALGITFEEIVHTSGPNDAIVMNGGVDEHNGLPTTVGTGNLLASNKVIMHSFKVPVKLLFRAQDTRIQEPMINYIQLMMYKLPPISGEFGSAFHGFIRRVERYSNVNHIHLMGVKKKEHGNEGDDVELKIIVNELDWHLEICWNGPLDSVIQRQEGLTDNPSQNQHIDTDGRQEEGSLPIIEADKPMSSLYTNTRDREMEENIRYDEDLLRIEDSSIADTRGNIYTADTSGDTEFNDISVMVEKAEQESSSTHEVIIRCKDWKVCSKLYAAFEEVVLAISHDESCVFHCSLDRGSLEDSEDVEKPRERGQIIYYIARSKGL |
| binds | binds | – | Ddc1 (two-hybrid fusion) (protein, UniProt Q08949 1-612) MSFKATITESGKQNIWFRAIYVLSTIQDDIKITVTTNELIAWSMNETDTTLCQVRFQKSFFEEYEFKPHEIVFGENGVQVIEDTYGNSHKLYSFRVNGRHLTTISRKPDGDGIKSFTIAVNNTSTCPESLANRLIVVIEMDSLIVKEYCPQFQPIKYDPIIINLKYKRRFLDVFGTAASDRNPQEPLDPKLLDVFTNTERELTSALFNEEVESDIRKRNQLTAADEINYICCNSTLLKNFLDNCNVNVTDEVKLEINVHRLSITAFTKAVYGKNNDLLRNALSMSNTISTLDLEHYCLFTTIEDEKQDKRSHSKRREHMKSIIFKLKDFKNFITIGPSWKTTQDGNDNISLWFCHPGDPILMQMQKPGVKLELVEVTDSNINDDILEGKFIKTAISGSKEEAGLKDNKESCESPLKSKTALKRENLPHSVAGTRNSPLKVSYLTPDNGSTVAKTYRNNTARKLFVEEQSQSTNYEQDKRFRQASSVHMNMNREQSFDIGTTHEVACPRNESNSLKRSIADICNETEDPTQQSTFAKRADTTVTWGKALPAADDEVSCSNIDRKGMLKKEKLKHMQGLLNSQNDTSNHKKQDNKEMEDGLGLTQVEKPRGIFD |
| – | – | no binding | Sgs1-HA (protein, UniProt P35187 1-1447) MVTKPSHNLRREHKWLKETATLQEDKDFVFQAIQKHIANKRPKTNSPPTTPSKDECGPGTTNFITSIPASGPTNTATKQHEVMQTLSNDTEWLSYTATSNQYADVPMVDIPASTSVVSNPRTPNGSKTHNFNTFRPHMASSLVENDSSRNLGSRNNNKSVIDNSSIGKQLENDIKLEVIRLQGSLIMALKEQSKLLLQKCSIIESTSLSEDAKRLQLSRDIRPQLSNMSIRIDSLEKEIIKAKKDGMSKDQSKGRSQVSSQDDNIISSILPSPLEYNTSSRNSNLTSTTATTVTKALAITGAKQNITNNTGKNSNNDSNNDDLIQVLDDEDDIDCDPPVILKEGAPHSPAFPHLHMTSEEQDELTRRRNMRSREPVNYRIPDRDDPFDYVMGKSLRDDYPDVEREEDELTMEAEDDAHSSYMTTRDEEKEENELLNQSDFDFVVNDDLDPTQDTDYHDNMDVSANIQESSQEGDTRSTITLSQNKNVQVILSSPTAQSVPSNGQNQIGVEHIDLLEDDLEKDAILDDSMSFSFGRQHMPMSHSDLELIDSEKENEDFEEDNNNNGIEYLSDSDLERFDEERENRTQVADIQELDNDLKIITERKLTGDNEHPPPSWSPKIKREKSSVSQKDEEDDFDDDFSLSDIVSKSNLSSKTNGPTYPWSDEVLYRLHEVFKLPGFRPNQLEAVNATLQGKDVFVLMPTGGGKSLCYQLPAVVKSGKTHGTTIVISPLISLMQDQVEHLLNKNIKASMFSSRGTAEQRRQTFNLFINGLLDLVYISPEMISASEQCKRAISRLYADGKLARIVVDEAHCVSNWGHDFRPDYKELKFFKREYPDIPMIALTATASEQVRMDIIHNLELKEPVFLKQSFNRTNLYYEVNKKTKNTIFEICDAVKSRFKNQTGIIYCHSKKSCEQTSAQMQRNGIKCAYYHAGMEPDERLSVQKAWQADEIQVICATVAFGMGIDKPDVRFVYHFTVPRTLEGYYQETGRAGRDGNYSYCITYFSFRDIRTMQTMIQKDKNLDRENKEKHLNKLQQVMAYCDNVTDCRRKLVLSYFNEDFDSKLCHKNCDNCRNSANVINEERDVTEPAKKIVKLVESIQNERVTIIYCQDVFKGSRSSKIVQANHDTLEEHGIGKSMQKSEIERIFFHLITIRVLQEYSIMNNSGFASSYVKVGPNAKKLLTGKMEIKMQFTISAPNSRPSTSSSFQANEDNIPVIAQKSTTIGGNVAANPPRFISAKEHLRSYTYGGSTMGSSHPITLKNTSDLRSTQELNNLRMTYERLRELSLNLGNRMVPPVGNFMPDSILKKMAAILPMNDSAFATLGTVEDKYRRRFKYFKATIADLSKKRSSEDHEKYDTILNDEFVNRAAASSNGIAQSTGTKSKFFGANLNEAKENEQIINQIRQSQLPKNTTSSKSGTRSISKSSKKSANGRRGFRNYRGHYRGRK |

— PMC4176354
